# Measurements: paper PMC11555233
# Sequences of proteins named here, by UniProt entry; tags and fusion partners are left off. A change or cut given only in a name is not applied to a line headed by its entry. A line that says so, or that is headed by a name, gives the form on record, which may keep a tag or linker.
# UniProt Q13485: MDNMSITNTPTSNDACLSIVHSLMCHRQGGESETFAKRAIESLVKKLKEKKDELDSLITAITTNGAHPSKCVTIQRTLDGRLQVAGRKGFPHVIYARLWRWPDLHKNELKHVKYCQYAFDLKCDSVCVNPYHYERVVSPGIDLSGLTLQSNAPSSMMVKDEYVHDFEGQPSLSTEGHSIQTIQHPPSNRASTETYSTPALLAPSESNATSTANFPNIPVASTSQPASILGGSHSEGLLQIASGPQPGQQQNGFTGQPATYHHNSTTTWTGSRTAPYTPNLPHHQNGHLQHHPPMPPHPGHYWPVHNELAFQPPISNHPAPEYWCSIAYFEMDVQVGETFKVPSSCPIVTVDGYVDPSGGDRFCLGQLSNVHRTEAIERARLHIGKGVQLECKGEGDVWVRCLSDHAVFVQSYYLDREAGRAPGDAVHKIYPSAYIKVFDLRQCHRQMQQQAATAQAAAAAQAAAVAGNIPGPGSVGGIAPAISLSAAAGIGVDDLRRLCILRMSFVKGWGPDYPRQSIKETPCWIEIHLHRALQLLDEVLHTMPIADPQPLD
# Flag-TurboID-SMAD4-2LA (Q13485, form named): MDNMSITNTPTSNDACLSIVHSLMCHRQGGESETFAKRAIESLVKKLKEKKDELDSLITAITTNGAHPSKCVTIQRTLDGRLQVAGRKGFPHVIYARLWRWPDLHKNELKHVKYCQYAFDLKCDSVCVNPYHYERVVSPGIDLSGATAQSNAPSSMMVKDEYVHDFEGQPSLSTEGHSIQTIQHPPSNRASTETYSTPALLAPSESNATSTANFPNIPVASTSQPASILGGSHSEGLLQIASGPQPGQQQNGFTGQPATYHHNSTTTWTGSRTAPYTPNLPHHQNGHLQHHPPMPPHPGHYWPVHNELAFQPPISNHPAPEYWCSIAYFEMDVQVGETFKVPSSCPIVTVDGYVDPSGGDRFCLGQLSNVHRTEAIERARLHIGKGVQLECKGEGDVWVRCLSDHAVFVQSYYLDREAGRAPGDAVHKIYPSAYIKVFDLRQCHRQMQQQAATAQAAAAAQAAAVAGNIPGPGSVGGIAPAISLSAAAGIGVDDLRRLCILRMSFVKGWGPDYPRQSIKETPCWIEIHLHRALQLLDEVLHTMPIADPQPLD
# UniProt P09874: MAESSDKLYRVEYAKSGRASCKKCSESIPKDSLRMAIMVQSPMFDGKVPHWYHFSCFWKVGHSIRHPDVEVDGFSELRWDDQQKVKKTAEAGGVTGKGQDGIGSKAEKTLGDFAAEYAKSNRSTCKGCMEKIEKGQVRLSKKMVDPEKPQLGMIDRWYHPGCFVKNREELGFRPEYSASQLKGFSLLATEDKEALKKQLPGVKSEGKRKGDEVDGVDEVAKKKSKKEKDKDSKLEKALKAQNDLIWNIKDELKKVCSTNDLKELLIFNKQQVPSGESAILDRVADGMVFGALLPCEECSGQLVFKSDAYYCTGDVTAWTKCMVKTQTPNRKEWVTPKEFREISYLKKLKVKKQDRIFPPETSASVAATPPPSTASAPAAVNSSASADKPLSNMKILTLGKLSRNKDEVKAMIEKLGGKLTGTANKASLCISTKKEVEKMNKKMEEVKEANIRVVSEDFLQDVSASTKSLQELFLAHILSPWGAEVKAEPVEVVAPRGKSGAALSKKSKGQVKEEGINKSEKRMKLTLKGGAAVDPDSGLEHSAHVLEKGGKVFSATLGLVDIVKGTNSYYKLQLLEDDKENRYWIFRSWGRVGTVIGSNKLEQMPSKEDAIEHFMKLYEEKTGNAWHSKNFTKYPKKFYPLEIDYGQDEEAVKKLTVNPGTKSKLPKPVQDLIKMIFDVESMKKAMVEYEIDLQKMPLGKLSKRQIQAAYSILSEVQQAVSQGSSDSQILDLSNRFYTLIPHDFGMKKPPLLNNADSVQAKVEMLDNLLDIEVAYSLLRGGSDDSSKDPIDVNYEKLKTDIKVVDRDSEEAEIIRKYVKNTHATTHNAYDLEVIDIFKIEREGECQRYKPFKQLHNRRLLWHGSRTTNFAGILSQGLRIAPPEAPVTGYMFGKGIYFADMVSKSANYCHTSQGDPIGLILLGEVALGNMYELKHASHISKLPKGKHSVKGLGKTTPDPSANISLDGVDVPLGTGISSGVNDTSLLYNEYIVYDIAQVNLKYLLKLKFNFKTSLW
# No constants are given. Whether binding was seen depends on the method and setting. In cells and extracts the contact can be indirect. Some entries that bind do so weakly or less than the wild type.
# How the values were obtained:
# SMAD4 (WT) = SMAD4 (WT) (UniProt Q13485); assay: co-IP; HEK293FT cells with SMAD4 and PARP1 constructs (WT and mutants); lysis in NETN buffer (20 mM Tris-HCl pH 8.0, 100 mM NaCl, 1 mM EDTA, 0.5% NP-40), affinity beads overnight at 4 °C; bait of each panel not given
# SMAD4-2LA mutant = SMAD4-2LA mutant (UniProt Q13485); assay: as above
# SMAD4 L109Q mutant = SMAD4 L109Q mutant (UniProt Q13485); assay: as above
# SMAD4 A118V mutant = SMAD4 A118V mutant (UniProt Q13485); assay: as above
# SMAD4 C71Y mutant = SMAD4 C71Y mutant (UniProt Q13485); assay: as above
# SMAD4 A96D mutant = SMAD4 A96D mutant (UniProt Q13485); assay: as above
# SMAD4 L57S mutant = SMAD4 L57S mutant (UniProt Q13485); assay: as above
# Flag-TurboID-SMAD4-2LA = Flag-TurboID-SMAD4-2LA (UniProt Q13485); assay: co-IP; HEK293FT cells transfected with Flag-TurboID-SMAD4-2LA, treated with irradiation and biotin for indicated time points; SMAD4 co-IP, blot for endogenous PARP1; NETN buffer, 4 °C overnight
binding (SMAD4 (WT)),binding (SMAD4-2LA mutant),binding (SMAD4 L109Q mutant),binding (SMAD4 A118V mutant),binding (SMAD4 C71Y mutant),binding (SMAD4 A96D mutant),binding (SMAD4 L57S mutant),binding (Flag-TurboID-SMAD4-2LA),Substance
binds,binds,no binding,no binding,binds,binds,no binding,,PARP1 (WT) (from UniProt P09874 1-1014)
binds,,,,,,,,PARP1-E988K mutant (from UniProt P09874 1-1014)
,,,,,,,binds,endogenous PARP1 (from UniProt P09874 1-1014)
